# Data as given in PubChem BioAssay AID624417 (National Center for Advancing Translational Sciences (NCATS), 2012).
# About 6,400 (1.6%) of roughly 410,000 compounds were called active. This list was built around the results that the source calls inconclusive (neither active nor inactive); the mix of calls is not that of the screen. Calls follow the shape of the dose curve; as a rule, active = well fitted inhibition curve with a large enough effect; inconclusive = small, poorly fitted or top-dose-only effect; inactive = no such curve, though single readings can be large or run the other way. No potency is given beside an inconclusive call; the fits are too rough.
# Target: Glucagon-like peptide 1 receptor (Homo sapiens) (UniProt P43220)
# Test: qHTS of GLP-1 Receptor Inverse Agonists (Inhibition Mode); also: nearly all actives have a fitted effect of over 55% in size
# Conditions: HEK293 GLP-1R CRE-luciferase, luminescence, 24 h, GLP-1R form is constitutively active; activity change, negative = inhibition: at 38.3 µM (top of the series) unless noted
# In short: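 qHTS in 1536-well format: reporter HEK293 cells expressing constitutive GLP-1R activity in DMEM + 10% Nu serum, 24 hr with compounds at 37 deg C, luminescence read after 12 min with detection reagent.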
# % is scaled to controls: 0 for no effect and ±100 for the full control effect; potency is read from the fitted curve at half-maximal effect; tags tell the direction and shape of the fitted curve.
# UniProt P43220, sequence (P43220 whole entry, looked up): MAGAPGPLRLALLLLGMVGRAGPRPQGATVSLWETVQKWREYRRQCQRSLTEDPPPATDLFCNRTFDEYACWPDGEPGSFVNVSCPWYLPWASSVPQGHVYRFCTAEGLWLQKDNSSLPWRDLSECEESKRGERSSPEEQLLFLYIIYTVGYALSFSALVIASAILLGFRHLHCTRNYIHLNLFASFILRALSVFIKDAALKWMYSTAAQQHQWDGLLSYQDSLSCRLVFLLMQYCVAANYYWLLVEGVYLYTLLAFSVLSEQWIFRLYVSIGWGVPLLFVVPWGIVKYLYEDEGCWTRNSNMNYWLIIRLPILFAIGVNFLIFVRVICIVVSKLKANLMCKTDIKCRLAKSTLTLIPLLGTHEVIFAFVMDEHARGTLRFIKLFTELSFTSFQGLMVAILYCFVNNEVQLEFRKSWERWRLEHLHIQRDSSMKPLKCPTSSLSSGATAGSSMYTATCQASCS
SMILES,Potency,"activity change, negative = inhibition"
O=[N+]([O-])c1cc2oc3c(c2c(C=NCc2ccncc2)c1O)CCCC3,inactive,–
CCc1ccc(C(c2ccccc2)c2c[nH]c3ccc(C)cc23)s1 (stereo not drawn),"inconclusive [inhibitor, partial curve, poor fit]",–
COc1ccc(-c2nc(CN3CCN(Cc4cccc(F)c4)CC3)c(C)o2)cc1,"inconclusive [inhibitor, partial curve, poor fit]",–
CC(C)OC(=O)c1ccc(NC(=O)c2cccc(-n3cnnn3)c2)cc1,active: 7.08 µM,–
Cc1ccccc1C(=O)Nc1ccccc1NC(=O)c1ccccc1Br,–,inconclusive: -54% [inhibitor]
O=C(Nc1ccc(Br)cc1)C1CCCN1S(=O)(=O)c1cccs1 (stereo not drawn),"inconclusive [inhibitor, single point]",–
Clc1ccccc1CSc1nnc(-c2ccco2)c(-c2ccco2)n1,"inconclusive [inhibitor, single point]",–
COc1cccc(NC(=O)c2ccccc2Oc2ccccc2)c1,"inconclusive [inhibitor, partial curve, poor fit]",–
C[C@H]1CN([C@@H](C)CO)S(=O)(=O)c2ccc(-c3ccccc3)cc2O[C@H]1CN(C)C(=O)C1CCC1,"inconclusive [inhibitor, single point]",–
CCn1c(=O)c2cc(C(=O)N3CCN(c4cccc(OC)c4)CC3)sc2c2ccccc21,"inconclusive [inhibitor, partial curve, poor fit]",–
CCOC(=O)Cc1ccc(NC(=O)N2CCc3c(sc4c3CCCC4)C2c2ccc(F)cc2)cc1 (stereo not drawn),active: 3.98 µM,–
CN(C)/C=N/C1=C(C#N)C(c2cccs2)c2ccc3ccccc3c2O1 (stereo not drawn),"inconclusive [inhibitor, partial curve]",–
CCOC(=O)C[C@H]1c2cc(F)ccc2S(=O)(=O)N1C(C)C,inactive,–
CCN1CCN(c2ncc3c(n2)CCN(Cc2sccc2C)C3)CC1,"inconclusive [inhibitor, partial curve]",–
COc1ccc(CCNC(=O)COC(=O)C23CC4CC(CC(C4)C2)C3)cc1,"inconclusive [inhibitor, partial curve, poor fit]",–
O=C(Nc1nc(-c2ccc3c(c2)OCO3)cs1)C1COc2ccccc2O1 (stereo not drawn),"inconclusive [inhibitor, single point]",–
CN(C)CCCn1c2c(c(SCC(=O)Nc3cccc4ccccc34)nc1=O)CCC2,"inconclusive [inhibitor, single point]",–
CC(C)(C)NC(=O)c1ccc(COc2ccccc2Br)o1,"inconclusive [inhibitor, partial curve, poor fit]",–
O=C(Nc1cccc(OCC(=O)N2CCOCC2)c1)c1cccc([N+](=O)[O-])c1,inactive,–
O=C(Nc1ccc(F)c(Cl)c1)C1CCCC1,"inconclusive [inhibitor, single point]",–
CCCCCCCCN1C(=O)[C@H](CC(=O)NCCC(C)C)C[C@@]2(C(=O)OCC)CCC=C12,"inconclusive [inhibitor, partial curve, poor fit]",–

SMILES,Potency,"activity change, negative = inhibition"
COc1cc(NC(=O)CC(C)S(=O)(=O)c2ccc3c(c2)CCN3C(C)=O)cc(OC)c1OC (stereo not drawn),inactive,–
CCCN1CCN(CCCNC(=O)c2ccc3c(c2)NC(=O)c2ccccc2S3)CC1,"inconclusive [inhibitor, single point]",–
CCOc1ccc(Nc2nc(C)c(NC(=O)c3ccc(C)cc3)c(Nc3ccc(OCC)cc3)n2)cc1,"inconclusive [inhibitor, full curve, poor fit]",–
CCN(c1ccccc1)S(=O)(=O)c1ccc(Cl)c(NC(=O)CN(C)C2CCN(C)CC2)c1,"inconclusive [inhibitor, partial curve, poor fit]",–
NS(=O)(=O)c1ccc(N=Nc2ccc(=O)[nH]c2O)cc1,inactive,–
COc1ccc(Cl)cc1NC(=O)c1cnc(SC)nc1-c1ccccc1,"inconclusive [inhibitor, partial curve, poor fit]",–
Cc1snc(SCc2c(F)cccc2Cl)c1C#N,"inconclusive [inhibitor, full curve]",–
Oc1ccc(N2CCN(Cc3cc4c(cc3Br)OCCO4)CC2)cc1,"inconclusive [inhibitor, partial curve, poor fit]",–
CC(C)(C)OC(=O)[C@H](CCCCN)NC(=O)c1[nH]cnc1C(=O)N[C@@H](Cc1ccccc1)C(=O)OCc1ccccc1,"inconclusive [inhibitor, single point]",–
Cc1ccc(-n2nnc(-c3cccnc3)n2)cc1,inactive,–
CC(C)(C)C1CCC(C(=O)NCCc2ccc(S(N)(=O)=O)cc2)CC1 (stereo not drawn),"inconclusive [inhibitor, single point]",–
CCN(CC)CC(=O)Nc1ccc(C)cc1Br,"inconclusive [inhibitor, single point]",–
CCN1CCN(CCOc2ccccc2-c2ccccc2)CC1,"inconclusive [inhibitor, partial curve, poor fit]",–
Cc1ccc(N(CCC(=O)NC(C)(C)C)S(=O)(=O)c2ccc(C)cc2)cc1,"inconclusive [inhibitor, single point]",–
CCN(CC(=O)NCc1ccc2c(c1)OCO2)S(=O)(=O)c1ccc(F)cc1,"inconclusive [inhibitor, single point]",–
Cc1ccc2nc(-c3cccc(-c4cccc(Cl)c4)c3)c(NCc3ccccc3)n2c1,active: 11.2 µM,–
CCCC(=O)Oc1ccccc1C1SCc2cc(C)c(C)cc2CS1,"inconclusive [inhibitor, partial curve, poor fit]",–
CNS(=O)(=O)c1cc(-c2nn3c(C)nnc3c3ccccc23)ccc1C,inactive,–
NC(=S)N=Nc1c(O)n(Cc2ccc(Br)cc2)c2ccccc12,active: 2.51 µM,–
Cc1oc2c(c1C(=O)N1CCC(C)CC1)C(=O)c1ccccc1C2=O,"inconclusive [inhibitor, single point]",–
O=C(NCCC1CCCCN1S(=O)(=O)c1ccc(Cl)cc1)C(=O)NCc1ccncc1 (stereo not drawn),"inconclusive [inhibitor, single point]",–

SMILES,Potency,"activity change, negative = inhibition"
O=c1c2ccccc2nc(/C=C/c2c[nH]c3ccccc23)n1CCO,"inconclusive [inhibitor, partial curve, poor fit]",–
CCN(CC)S(=O)(=O)c1cc(NC(=O)CCCOc2ccc(C(C)=O)cc2)ccc1C,"inconclusive [inhibitor, single point]",–
CCn1cc(CNC(=O)c2cc(COc3ccc(F)cc3Cl)on2)cn1,"inconclusive [inhibitor, partial curve, poor fit]",–
COc1ccccc1C(=O)c1ccccc1C(=O)c1ccccc1,"inconclusive [inhibitor, single point]",–
Cc1cccc(NS(=O)(=O)c2ccc(C(=O)NCC(c3ccccc3)N(C)C)cc2)c1C (stereo not drawn),"inconclusive [inhibitor, partial curve, poor fit]",–
Cc1cc(C(=O)CN2C(=O)C(=O)N(C3CCCC3)C2=O)c(C)n1CCc1ccccc1,"inconclusive [inhibitor, single point]",–
COc1ccc(-c2nc(SCC(=O)Nc3ccc4c(c3)OCO4)c(-c3ccccc3)[nH]2)cc1,"inconclusive [inhibitor, partial curve]",–
O=C(COc1ccc(S(=O)(=O)N2CCCC2)cc1[N+](=O)[O-])N1CCCCC1,inactive,–
COc1ccccc1-c1csc(Nc2ccc(Oc3ccccc3)cc2)n1,"inconclusive [inhibitor, single point]",–
CC1=C(C(=O)OC(C)C)C(c2c[nH]c3ccccc23)n2ncnc2N1 (stereo not drawn),"inconclusive [inhibitor, single point]",–
O=C(NC1CCC(C(=O)O)CC1)OCc1ccccc1 (stereo not drawn),inactive,–
Cc1cccc(Cc2nc3ccccc3[nH]2)c1,"inconclusive [inhibitor, partial curve, poor fit]",–
CCOc1ccccc1NC(=O)c1cc2cc(C)ccc2n1C,"inconclusive [inhibitor, full curve]",–
COc1cccc(CN2CCC(n3nccc3NC(=O)CCCc3ccccc3)CC2)c1,"inconclusive [inhibitor, partial curve, poor fit]",–
O=C(OCc1cn([C@H]2CN(C(=O)C3CCCCC3)[C@@H](c3ccccc3)C[C@@H]2O)nn1)c1ccccc1,"inconclusive [inhibitor, single point]",–
CC1CCN(C(C(=O)Nc2ccc(C(C)C)cc2)c2ccc3c(c2)OCO3)CC1 (stereo not drawn),active: 4.47 µM,–
COc1cc(-c2nc(-c3ccccc3)c(-c3cc([N+](=O)[O-])ccc3C)[nH]2)cc(OC)c1OC,"inconclusive [inhibitor, full curve, poor fit]",–
COc1ccccc1-c1cc2nc(C)c(CCC(=O)NCc3ccc(F)cc3)c(C)n2n1,"inconclusive [inhibitor, partial curve, poor fit]",–
Cc1cn([C@H]2C[C@H](O)[C@@H](CCC(=O)NCCCc3ccccc3)O2)c(=O)[nH]c1=O,inactive,–
O=C(c1ccc(Br)s1)N1CCN(S(=O)(=O)c2ccccc2)CC1,"inconclusive [inhibitor, single point]",–
COc1ccccc1N1CCN(Cc2nc(-c3ccc(F)cc3)oc2C)CC1,"inconclusive [inhibitor, single point]",–
